Experimental data published in patent US20220283175A1, “METALLOENZYMES FOR BIOMOLECULAR RECOGNITION OF N-TERMINAL MODIFIED PEPTIDES” (Encodia, Inc., priority 2020, published 2022).

System: immobilized set of 288 M64-modified peptides (17×17 combination of P1 and P2 residues)
Test: multiplex encoding assay (heatmap data), P1 and P2 Gini scores
Format: binding
Conditions: NTM M64
From the text: To evaluate binding efficiencies of selected purified binders, a previously developed ProteoCode™ assay (disclosed in detail in US 20190145982 A1, incorporated herein) was used. This variant of the ProteoCode™ assay comprises contacting binder-coding tag conjugates with the N-terminally modified immobilized peptides associated with the recording tags. […] Sequencing of extended recording tags after the encoding cycle may be used to identify binder(s) that was (were) bound to the immobilized peptide. At the same time, estimating fractions of the recording tags being extended (encoded) during primer extension reaction provides estimate of efficiency of the encoding reaction, which directly correlates with binding affinity of the binder to the particular modified NTAA.
For the encoding assay, selected binding agents engineered from metalloenzyme scaffolds as described in the previous Examples 4-6 were used. Each binding agent was conjugated to a corresponding nucleic acid coding tag comprising barcode with identifying information regarding the binding agent. The coding tag specific for the binding agent was attached to SpyTag via a PEG linker, and the resulting fusions were reacted with binding agent-SpyCatcher fusion protein via SpyTag-SpyCatcher interaction, essentially as described in US 2021/0208150 A1. Briefly, amine-functionalized oligonucleotide coding tags were conjugated to a heterobifunctional linker containing an NHS ester, PEG24 linker and maleimide. Excess linker was removed by acetone purification, and excess linker in solution was removed by centrifugation. Purified oligonucleotide-PEG24-maleimide was incubated overnight with SpyTag peptide forming a conjugate via a cysteine residue. The sample was spun down to remove precipitate and the supernatant was transferred to a 10 k molecular weight filter to remove excess SpyTag peptide. […]

B1: 58 (protein)
chain: DWGYDDKNGPEQWSKLYPIANGNNQSPVDIKTSETKHDTSLKPISVSYNPATAKEIINVGHSFHVNFEDNDNRSVLKGGPFSDSYRLFQFHFHWGSTNEHGSEHTVDGVKYSAELHVAHWNSAKYSSLAEAASKADGLAVIGVLMKVGEANPKLQKVLDALQAIKTKGKRAPFTNFDPSTLLPSSLDFWTYPGSLTHPPLYESVTWIICKESISVSSEQLAQFRSLLSNVEGDNAVPMQHNNRPTQPLKGRTVRASF
modifications: Carbonic anhydrase I, M=M64
- P1 score (Gini coefficient for P1 selectivity, n=17): 0.3377
- P2 score (Gini coefficient for P2 tolerance, n=17): 0.2358
- Specificity towards P1: Small
